These results are taken from the supplement of paper PMC12340641.

Over roughly 1,000 compounds, “relative growth recovery (pomalidomide 10 uM = 100%, DMSO = 0%)” has its median near -1.6; the highest 2% begin near 21. Some of the results follow.

In the assay the test system is HEK293FT dCK*-IKZF1. As to the kind of experiment: relative growth recovery (pomalidomide 10 uM = 100%, DMSO = 0%); higher = more growth rescue (IKZF1 fusion degradation). The conditions noted are these: compound concentration: 5 uM; AraC concentration: 0.3 uM; overnight pretreatment + 4 days AraC. The method, then:
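Growth recovery screen of the molecular-glue-like (Specs) library. HEK293FT cells expressing a dCK*-IKZF1 fusion (primary) or dCK* alone (counter) were pretreated overnight with compound at 5 uM, then given 0.3 uM AraC for 4 days. Hoechst nuclei were counted by imaging. Primary: normalised to pomalidomide (100%) and DMSO (0%), mean of 2 replicates. Counter: normalised to no-AraC (100%) and AraC+DMSO (0%), single replicate.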
Take `O=C(O)CCOCCOCCNc1ccc2c(c1)C(=O)N(C1CCC(=O)NC1=O)C2=O` (stereo unspecified): the relative growth recovery was -0.075%.

For `O=C(Nc1ccc(S(=O)(=O)Nc2ncccn2)cc1)c1ccccc1F`, the relative growth recovery was -1.7%. As for `Cc1cnc(Nc2cccc(CC3CCN(CC(N)=O)CC3)n2)s1`, the figure is -19.4%; as for `CNCC(=O)N1CCC(CO)(c2cccc(Nc3ncc(-c4ccccc4)s3)n2)CC1`, -4.66%. The figure for `O=C(COc1ccc(Cl)cc1)Nc1ccc(S(=O)(=O)Nc2ccccn2)cc1` is -1.21%; for `O=C(Nc1ccc(Oc2ccc3c(c2)C(=O)N(c2ccc(O)cc2)C3=O)cc1)c1cccs1` it is -3.15%; for `COc1nccnc1NS(=O)(=O)c1ccc(NC(=O)c2cccc(C)c2)cc1` it is 4.03%. Turning to `CCOc1ccccc1C(=O)Nc1ccc(S(=O)(=O)Nc2ncccn2)cc1`, the relative growth recovery was -2.12%. As for `O=C(O)CC1CCN(c2cccc3c2C(=O)N(C2CCC(=O)NC2=O)C3=O)CC1` (stereo unspecified), the figure is 0.73%; as for `COc1ccc(Cl)cc1NC(=O)CSc1nnc2c(n1)[nH]c1ccccc12`, -11%; as for `Cc1ccc(OCC(=O)Nc2ccc(S(=O)(=O)Nc3ccccn3)cc2)cc1C`, 2.05%. In the case of `CCCc1cnc(Nc2cccc(C3CCN(C(=O)CNC(=O)OC(C)(C)C)CC3)n2)s1`, the relative growth recovery was -5.49%.

Consider `COc1ccccc1/C=C/C(=O)Nc1ccc(S(=O)(=O)Nc2cc(C)nc(C)n2)cc1`, for which the relative growth recovery is -18.7%. As for `O=C(CCn1ncc2c1CCCC2)N1CCOC(c2cccc(Nc3nccs3)n2)C1` (stereo unspecified), the relative growth recovery amounted to 14.7%. For `COC(=O)CCC(=O)Nc1ccc(S(=O)(=O)Nc2cc(OC)nc(OC)n2)cc1`, the relative growth recovery is -1.54%.

As to `Cc1cccc(OCC(=O)Nc2ccc(S(=O)(=O)Nc3ncccn3)cc2)c1C`, the relative growth recovery was 0.295%. Consider `Cc1cc(C)nc(NS(=O)(=O)c2ccc(NC(=O)c3ccccc3Cl)cc2)n1`, for which the relative growth recovery was 0.275%. Regarding `Cc1cnc(Nc2cccc(C(C(=O)N(C)C)C3CCN(C(=O)C4CCCCC4)CC3)n2)s1` (stereo unspecified), the relative growth recovery was 1.65%.

Take `Cc1csc(Nc2cccc(C3CCCN3C(=O)Cn3c(C)cc(C)nc3=O)n2)n1` (stereo unspecified): the relative growth recovery is -0.665%. Take `CN(C)CC(=O)N1CCCC1c1cccc(Nc2nccs2)n1` (stereo unspecified): the relative growth recovery is -6%. For the compound `Cc1cnc(Nc2cccc(C3CN(C(=O)CC4CCCCC4)CCO3)n2)s1` (stereo unspecified), the relative growth recovery is -11.7%. For the compound `COc1cc(NS(=O)(=O)c2ccc(NC(=O)C3CC3)cc2)nc(OC)n1`, the relative growth recovery was -1.71%. The figure for `Cc1cnc(Nc2cccc(C3CCN(C(=O)CCC4CCCCC4)CC3)n2)s1` is 18.3%; for `O=C(O)CCOCCOCCOCCNc1cc2c(cc1F)C(=O)N(C1CCC(=O)NC1=O)C2=O` (stereo unspecified) it is 0.215%; for `Cc1cc(C)nc(NS(=O)(=O)c2ccc(Nc3nc(-c4ccc(C)c(C)c4)cs3)cc2)n1` it is -0.65%.

Regarding `CCCc1cnc(Nc2cccc(C3CCN(C(=O)[C@@H]4CCCCN4C(=O)COC)CC3)n2)s1`, the relative growth recovery came to 0.62%. In the case of `Cc1cnc(Nc2cccc(C3CCN(C(=O)C4(NC(=O)C(C)C)CCCCC4)CC3)n2)s1`, the relative growth recovery was -18.7%.

`O=C(c1ccc2c(c1)OCCO2)N1CCC(c2cccc(Nc3nccs3)n2)CC1`: the relative growth recovery was -12.3%. The figure for `Cc1csc(Nc2cccc(C3CCCN3C(=O)c3cnc(C)nc3C)n2)n1` (stereo unspecified) is -1.01%; for `Cc1cc(OCC(=O)Nc2ccc(S(=O)(=O)Nc3ncccn3)cc2)ccc1Cl` it is -0.26%; for `Cc1cc(C)nc(NS(=O)(=O)c2ccc(NC(=S)NC(=O)/C=C/c3cccs3)cc2)n1` it is -1.09%.

Consider `CCOC(=O)c1ccc(N2C(=O)c3ccc(Oc4ccc(N)cc4)cc3C2=O)cc1`, for which the relative growth recovery came out at 2.28%. As for `Cc1csc(Nc2cccc(C3CN(C(=O)CCn4ncc5ccccc54)CCO3)n2)n1` (stereo unspecified), the figure is 18.8%; as for `CC(C)(N)C(=O)N1CCC(CO)(c2cccc(Nc3ncc(-c4ccccc4)s3)n2)CC1`, -19.1%. `Cc1cnc(Nc2cccc(C3CCN(C(=O)[C@@H]4CCCCN4)CC3)n2)s1`: the relative growth recovery was -15%. As for `CNC(=O)C(c1cccc(Nc2ncc(C)s2)n1)C1CCN(C(=O)c2cccc(Cl)c2F)CC1` (stereo unspecified), the figure is 0.915%. For `Cc1ccnc(NS(=O)(=O)c2ccc(NC(=O)c3cccs3)cc2)n1`, the relative growth recovery was determined as 3.83%. `CC(=O)Nc1ccc(S(=O)(=O)Nc2ccc(S(=O)(=O)Nc3nccc(C)n3)cc2)cc1`: the relative growth recovery is -6.14%.

Turning to `Cc1cnc(Nc2cccc(C3CCCN3C(=O)Cn3cnc4ccccc43)n2)s1` (stereo unspecified), the relative growth recovery was -19.5%. As to `O=C(COc1ccc(Cl)cc1)Nc1ccc(S(=O)(=O)Nc2ncccn2)cc1`, the relative growth recovery was -2.35%.

As for `O=C(Nc1ccc(S(=O)(=O)Nc2ccccn2)cc1)c1ccc(Cl)cc1`, the relative growth recovery was 0.46%. The figure for `CC(=O)Nc1ccc(C(=O)Nc2ccc(S(=O)(=O)Nc3nccc(C)n3)cc2)cc1` is -2.91%. As to `COc1ccc2[nH]c(SCC(=O)Nc3ncccn3)nc2c1`, the relative growth recovery turned out to be 1.53%. For the compound `Cc1cnc(Nc2cccc(C3CCCN3C(=O)CCCc3ccc(F)cc3)n2)s1` (stereo unspecified), the relative growth recovery came out at 0.955%.

For `Cc1cc(C)nc(NS(=O)(=O)c2ccc(NC(=O)c3cc4ccccc4oc3=O)cc2)n1`, the relative growth recovery is -5.23%. For the compound `Cc1cc(C)nc(NS(=O)(=O)c2ccc(NC(=O)c3ccccc3Br)cc2)n1`, the relative growth recovery is -5.04%.

Consider `Cc1cnc(Nc2cccc(C3CN(C(=O)C4CCCCC4)CCO3)n2)s1` (stereo unspecified), for which the relative growth recovery is -11.7%. `COc1cc(NS(=O)(=O)c2ccc(NC(=O)c3ccc(C)cc3)cc2)nc(OC)n1`: the relative growth recovery is -3.06%. The figure for `Cc1ccc(OCC(=O)Nc2ccc(S(=O)(=O)Nc3ccccn3)cc2)c(C)c1` is -2.3%.

With `O=C1CCC(N2C(=O)c3cccc(NCc4ccc(C(=O)O)cc4)c3C2=O)C(=O)N1` (stereo unspecified), the relative growth recovery was determined as 3.17%. Turning to `COc1cc(NS(=O)(=O)c2ccc(Nc3nc(-c4ccc(Cl)cc4)cs3)cc2)nc(OC)n1`, the relative growth recovery is -3.09%. In the case of `CNC(=O)C1(c2cccc(Nc3ncc(C)s3)n2)CCN(C(=O)C2CCCCC2)CC1`, the relative growth recovery was -16.6%. As for `COCC(C)NC(=O)CN1CCC(c2cccc(Nc3nccs3)n2)CC1` (stereo unspecified), the figure is 4.26%; as for `CC(=O)N1CCCC1c1csc(Nc2ccccn2)n1` (stereo unspecified), -4.06%; as for `CC(=O)Nc1ccc(Oc2ccc3c(c2)C(=O)N(c2cccc(C)c2)C3=O)cc1`, -2.68%. Consider `Cc1csc(Nc2cccc(C3CCCN3C(=O)c3ccc4[nH]c(C(C)C)nc4c3)n2)n1` (stereo unspecified), for which the relative growth recovery was 36.3%. The figure for `Cc1cc(C)nc(NS(=O)(=O)c2ccc(NC(=O)COc3ccccc3Cl)cc2)n1` is -6.68%; for `CC(Oc1ccccc1)C(=O)Nc1ccc(S(=O)(=O)Nc2ncccn2)cc1` (stereo unspecified) it is -0.515%. The figure for `Cc1cnc(Nc2cccc(C3CN(C(=O)Cn4cnc5ccccc54)CCO3)n2)s1` (stereo unspecified) is -9.44%; for `Cc1ccc2[nH]c3nc(SCC(=O)Nc4ccc(F)cc4)nnc3c2c1` it is -0.35%.

For `COc1cc(NS(=O)(=O)c2ccc(NC(=S)NC(=O)/C=C/c3ccccc3)cc2)nc(OC)n1`, the relative growth recovery was -2.48%.

Regarding `COc1ccc2[nH]c3nc(SCC(=O)Nc4cc(Cl)ccc4OC)nnc3c2c1`, the relative growth recovery is -18.5%.

In the case of `CC(=O)c1ccc(N2C(=O)c3ccc(Oc4ccccc4)cc3C2=O)cc1`, the relative growth recovery was -18.1%.

On to `Cc1cnc(Nc2cccc(C3CCN(C(=O)C4CCC4)CC3)n2)s1`, for which the relative growth recovery is -17.7%. For `NCC(=O)N1CCC(c2cccc(Nc3ncc(Br)s3)n2)CC1`, the relative growth recovery was -17.1%.

With `CCNc1nc(NCC)nc(NS(=O)(=O)c2ccc(N)cc2)n1`, the relative growth recovery amounted to 3.4%. The figure for `CC(C)(C)c1ccccc1OCC(=O)Nc1ccc(S(=O)(=O)Nc2ccccn2)cc1` is 2.13%; for `CC(=O)Nc1ccc(S(=O)(=O)Nc2ccc(Cl)cn2)cc1` it is 3%; for `Cc1ccc(OCC(=O)Nc2ccc(S(=O)(=O)Nc3nc(C)cc(C)n3)cc2)c(C)c1` it is -3.39%. For the compound `COc1cccc(CCC(=O)N2CCOC(c3cccc(Nc4ncc(C)s4)n3)C2)c1` (stereo unspecified), the relative growth recovery was found to be 15.8%. Consider `Cc1nc(Nc2cccc(C3CCCN3C(=O)c3n[nH]c4c3CCCC4)n2)sc1C` (stereo unspecified), for which the relative growth recovery is 14.3%.

As to `Nc1ccc(S(=O)(=O)Nc2nccc(/C=C/c3ccc([N+](=O)[O-])cc3)n2)cc1`, the relative growth recovery was 2.31%. Regarding `COCCNC(=O)C1(c2cccc(Nc3ncc(C)s3)n2)CCN(C(=O)C2CCCCC2)CC1`, the relative growth recovery is -5.38%. The figure for `CCCc1cnc(Nc2cccc(C3CCN(C(=O)C4CCCCN4CCCO)CC3)n2)s1` (stereo unspecified) is -14.9%; for `Cc1ccc(C)c2c1[nH]c1nc(SCC(=O)Nc3cccc(F)c3)nnc12` it is -2.81%. The figure for `Cc1csc(Nc2cccc(C3CN(C(=O)COc4c(C)cccc4C)CCO3)n2)n1` (stereo unspecified) is 22.3%. Regarding `COc1ccc(C(C)(C)C(=O)N2CCCC2c2cccc(Nc3nc(C)cs3)n2)cc1` (stereo unspecified), the relative growth recovery was -1.8%. Turning to `Cc1ccnc(NS(=O)(=O)c2ccc(NC(=O)C3c4ccccc4Oc4ccccc43)cc2)n1`, the relative growth recovery is -0.965%. The figure for `Cc1cc(C)nc(NS(=O)(=O)c2ccc(Nc3nc(-c4c(C)nc5ccccn45)cs3)cc2)n1` is -2.69%. The figure for `COc1ccccc1CCC(=O)N1CCC(c2cccc(Nc3ncc(C)s3)n2)CC1` is 19%. As to `Cc1cnc(Nc2cccc(CC3CCN(C(=O)c4cccc(Cl)c4)CC3)n2)s1`, the relative growth recovery was -11.5%.

As to `Cc1ccc(Nc2nc(C3CCCN(CC(N)=O)C3)cs2)nc1` (stereo unspecified), the relative growth recovery is -5.75%. With `COc1ccc(CCC(=O)N2CCOC(c3cccc(Nc4nc(C)cs4)n3)C2)cc1` (stereo unspecified), the relative growth recovery turned out to be 32.4%. As for `CC(=O)Nc1ccc(Oc2ccc3c(c2)C(=O)N(c2ccc4ccccc4c2)C3=O)cc1`, the figure is -1.51%; as for `Cc1nc(Nc2cccc(C3CCCN3C(=O)COc3ccc(F)cc3)n2)sc1C` (stereo unspecified), 14.4%; as for `CCOc1ccccc1C(=O)Nc1ccc(S(=O)(=O)Nc2nc(C)cc(C)n2)cc1`, 2.54%. With `O=C(Nc1ccc(S(=O)(=O)Nc2ncccn2)cc1)c1cncc(Br)c1`, the relative growth recovery was -2.98%. Regarding `CC(C)(C)N1CC(C(=O)Nc2ccc(S(=O)(=O)Nc3ncccn3)cc2)CC1=O` (stereo unspecified), the relative growth recovery turned out to be 1.21%. As for `O=C(COc1cccc(Cl)c1)Nc1ccc(S(=O)(=O)Nc2ccccn2)cc1`, the figure is -0.93%; as for `Cc1ccc(C(=O)Nc2ccc(S(=O)(=O)Nc3ccccn3)cc2)cc1C`, -2.5%.

As for `CCCOc1cccc(C(=O)Nc2ccc(S(=O)(=O)Nc3nc(C)cc(C)n3)cc2)c1`, the relative growth recovery was -1.4%. As for `COC(=O)C(c1cccc(Nc2ncc(C)s2)n1)C1CCN(C(=O)c2cccc(F)c2F)CC1` (stereo unspecified), the relative growth recovery is -0.07%. Regarding `COCC(=O)N1CCC(c2cccc(Nc3nc(C)cs3)n2)CC1`, the relative growth recovery is 8.4%.

Take `Cc1ccc2[nH]c3nc(SCC(=O)Nc4cc(Cl)ccc4C)nnc3c2c1`: the relative growth recovery is 1.78%. With `Cc1csc(Nc2cccc(C3CCCN3C(=O)CO)n2)n1` (stereo unspecified), the relative growth recovery was 1.4%. On to `COc1cccc(OC)c1C(=O)N1CCOC(c2cccc(Nc3ncc(C)s3)n2)C1` (stereo unspecified), for which the relative growth recovery was found to be 1.18%.
